Values quoted from earlier work, collected in paper PMC2580802 (Cell, 2008).

System: S. pneumoniae
Details: ref Irschik et al., 1985; M. Talaue, N. Connell, J.M. and R.H.E., unpublished; cited from earlier work

For `C/C=C/C/C=C(\C)C(O)CC/C(C)=C/C=C(\C)C(=O)c1c(O)cc([C@H](C)CC/C=C/NC(=O)OC)oc1=O` (stereo partly shown) [Cor, corallopyronin A], which MIC is on record?
Its MIC is no more than 12.5 µg/mL.
